According to the supplement of paper PMC10126150:
Values marked as one replicate rest on one cluster of the flow cell; about a third of the high ones do not repeat.

Test system: ATP
Test: switch fluorescence ratio, 500 uM ATP over buffer (Cy3 cluster intensity, sum of 5 cycles each) (fold (ratio)); higher = stronger signal-on switching upon ATP binding; sequences stand for … in TCGTCGGCAGCGTCAGATGTGTATAAGAGACAGTTTTTTTTTTTTTTTTTTTTTTTTT…TC
Conditions: aptamer strand: ATP DNA aptamer (quencher-CACCTGGGGGAGTATTGCGGAGGAAGG + anchor), 100 nM annealed; ATP concentration: 500 uM; one replicate
Summary of the method: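 Cy3-labelled switching-strand clusters on a modified Illumina MiSeq flow-cell were annealed to 100 nM quencher-labelled ATP aptamer, imaged in selection buffer, then imaged after 15 min with 500 uM ATP at 22 °C. Five buffer/ATP cycles ran, with NaOH stripping and re-annealing between them. The fluorescence ratio is summed target-cycle over summed buffer-cycle Cy3 intensity per cluster, averaged per switch-domain sequence. Clusters outside 100-1000 RFU were excluded.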
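Further: ATP exposure 15 min at 22 °C before imaging.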

Sequence	switch fluorescence ratio
TATCCACTAT	1.01
CGCTGTCATT	1.01
TGGTTGGCAT	0.936
AAAAAGGCC	0.976
GACTACACGA	1.45
CCCCAGGGCA	4.7
ACCTAGTCTA	1.02
GGACCGAGAT	1.02
CGACTAGGGC	1.04
TGCAATAGGC	1.62
ATTTTCCATG	0.985
ACAATGTCCC	1.03
TTCTGCAACC	2.64
AGGCGGAATT	1.15
GACAGCGGTC	1.08
CTTCGACTGT	1.01
GCCCGGGCG	1.02
TCCGGTTTCA	1.02
ATTCTGAG	1.01
TATTTCGTTT	0.968
CAGCTTCTAT	0.992
GAATGATGCA	0.953
GTATACATAT	1.03
GACAGGTGGC	1.48
AATACAATTG	1.05
GACCTCTAGC	1.04

Sequence	switch fluorescence ratio
CAAATCTTCT	1.13
TATTGAGCGA	1.02
GACATTCGGT	0.995
TTCCGACTAA	2.42
CCACAGGCCG	0.965
TTGATGCGTA	1.05
TATTGCCGGC	1.06
ATTCTACAAC	0.968
ACGTTAGATT	1.09
GCATATGGGT	1.02
GTGTTTGT	0.991
AGAGGGCTCT	1.01
TTTGAAGCGG	0.972
GTTGGACGAG	0.968
GGTAGCAAAC	3.3
GAAATAAGA	1.01
ATCATAGACT	1.02
ACTGGTAGCC	1.02
CTGTACAAAT	0.983
AGGATGTAGT	0.99
GCAAAGATT	0.98
GATTCATTT	1
TATCAAACTT	1.09
GACGAAATGT	1.21
ACTAACTCAG	1.11
AAAGTCCCTC	1.01

Sequence	switch fluorescence ratio
TGCGGTACCG	1
TTGCATGGTA	1.02
AGTCAGTGTT	0.995
ACAGACCGGG	1.07
CCACCCTGAT	1.05
CCATCGTGCA	1.08
TCTCTAAGG	0.981
CGTCTACTCC	3.01
GTAAAACGGG	1.03
TCATGACTAT	0.978
AGTCTGCTGA	1.02
ATAAGTACTA	1.26
ACATTGGAAA	0.995
CCGTTCCGAT	1.36
ACCTAATATT	1.02
ACCGACTATG	1.05
GCTGGAACAT	0.961
GCCACGCCCC	1.95
CAAGCGGCG	1.05
CAATTTATCG	0.992
TAGCGACTTC	1
ATCGGGACTT	1.01
ATAAAAGGTC	0.977
GATCCAGGA	1.04
ACAGTGGGGC	0.991
AGTTTATGAT	0.997

Sequence	switch fluorescence ratio
ATGTCTTAGT	0.992
TAGTATAGTG	1.03
ACAAGAAATG	0.95
ATGCGGGGTA	1.01
CGTTGATGGC	1.03
GAGGAGAGCT	1.02
CTGCGTTCCG	0.999
GTTAGCGGGC	1.01
TCCAGCCACT	1.04
AAGATGGAAT	0.991
AACCTATTGC	1.01
CTGAGTTGGC	0.953
TCTTCTTAGT	0.995
GCTGCGTT	0.984
TAAAGCCCTA	0.98
ACAACGGTAG	1.03
GAGAGGGCTG	0.939
GTGAGCTTAA	1.01
CATCTGTAGT	1.08
ACCTGATGTT	0.986
GCACGGGTTT	1.1
CGGGCGCATG	1.02
AGTATAATTC	0.997
GGCGGAAAGG	1.02
GCTTACATTC	1.01
AAAAGTTACG	1.07

Sequence	switch fluorescence ratio
CGTCAGCGAG	1.16
GAATGAGCAG	1.03
CCCTTGAAAG	1.01
TATTGGTAA	1.01
AAACCTGGTT	1.05
GTTCTTGCCG	0.974
ATCCCGCCCG	1.07
CTCGTTTCTG	1.02
TGTAATCTCA	1.03
GACATGGTCC	1.02
TGGGGCCTAC	0.991
GATACGTCAG	1.02
ACTTAAAACG	1.15
GAATGGTACA	0.999
GCTTTTTCAT	0.975
TGAAGTCCGC	1.73
ATGATGTACC	1.15
AGTATGGGAG	1.02
TTGTATTGAC	1.02
TACCAATCAG	0.996
ATTCGCCTCA	0.988
TCTGAATTGG	1.01
AAAGCATTTG	1.03
GTTATCTTC	1
ACTTACATCT	1.21
CGATACTCTG	1.1

Sequence	switch fluorescence ratio
TTTTCGGAT	0.988
GCAGCAGGTG	4.45
AACTACGGG	1.09
CTTGCCGGGC	0.987
GGTGATTAGC	0.981
ATGTTATTAT	1.06
TGTCGAGGTA	1.06
GGTGACAGAG	0.954
CTGTCTTTG	0.996
GGCGTTTGTG	0.983
GCAAGCATGT	0.991
GATGCGAGGG	0.971
TAAATCCTTG	0.993
TTTTCTATAA	1.01
GGACTGGTT	0.964
TCTGACAAAA	2.08
GTATGGTTCT	0.935
TATCCTGGT	1.01
CCGTGTACGT	1.11
ACTTTGCCTC	1.03
AGAGCGGTCT	1.07
GGAAGCCCCG	1.01
TCCACGGTT	0.992
ATATCTTTGT	0.954
CCAATAAATG	0.98
ACGTGTGTTG	0.965

Sequence	switch fluorescence ratio
ACCCGGAGGG	0.916
AATCCAGGGT	1.08
GGTTTTGCT	0.975
AACAGTCTAT	1.01
ACGCAGGCGG	1
CAATGTTCAA	0.997
CCAAAATAGA	0.965
TCTATAACGA	1.02
CATCTCGGGG	0.979
TTAGTACAAG	1.05
TCTGGTTCTA	0.96
CAAGTCTATA	1.02
CTAACGTTTT	0.963
ATGACGTT	1.02
TGACCACGCG	1.12
TCTTCGGTGC	1.25
GCTTCGCGTT	1.11
GAGGCGAGTT	1.01
ATGTGTATGT	0.998
TGATGCTAAC	1.23
TTTTCGGAAT	1.06
AAGGGACTGA	1.04
GTCACCAGGC	0.963
AAGGGGTTG	1
ACTCGGATCT	0.99
CCTTGAAGAG	1.04

Sequence	switch fluorescence ratio
CAATCGAGTC	1.01
TATACTTG	1.01
TTAGGCGAT	1.03
CTATTTTTGG	1.09
AGAAGAGACT	1.02
TTCGGCTTTA	0.974
TTCTCATCGC	0.991
TATAGTAAAG	1.01
GACTTGTGAG	0.991
TACCTGGTGC	2.29
GGCTCGGCTG	0.985
TTCTA	1.01
ACCATTGGCC	0.991
GGCTCCTCAT	1.23
CTCACCGTTA	1.09
GCAAGAACGT	1.02
TTCATTCTGT	0.989
GACGACGTAC	3.03
TCTATCTAA	0.977
